Results taken from the RNAGym collection of RNA variant scans (doi:10.7554/elife.90254).
Read counts are not given, so values of variants with three or more changes are uncertain.

B1: LINE1-mini (parent)
chain: GGCAGAGCUCAACACAGCGUGGCAAAGUGGCUGUGGCUAGACUGCC

Variants of: B1
Assay: self-cleavage, relative activity (ratio to wild type); higher = more cleavage; in vitro, sequencing; the parent is a self-cleaving ribozyme

Variant | self-cleavage
A11U C23A G27C | 0.06
A6G U20A U32G | 0.01
G5U A16G C37A | 0.14
A16C U28C C31A G36A | 0.04
A12U A26U G29U | 0.48
A14U G21U U32A | 0.02
C3U C23A A24U U32A | 0.08
G2U G17U U20A | 0.01
C3G C18G C23A | 0.14
A4U C31A C46U | 0.05
C8A U9A A11G U32C G33C | 0
C10G A11U A26G C42U | 0.03
G1U G35U G40U | 0.05
C10A A24C C46U | 0.03
G2U C10G A16U U20A G21C U34A G36U | 0
A11U C13G G44U | 0.04
G7U C13A G29A | 0.2
U9G C13G G29U C46A | 0.06
C3U A4G G44U | 0.16
A4U A11U G33C C37A | 0.02
G7U G19C A41G | 0.12
U28C G35U G36A U38G | 0.03
G1U G19A U28G C31U | 0.13
G1C C23G C42A | 0.03

Variant | self-cleavage
A11C A14G A25U | 0.01
G5A A11G A25G G33A G40A | 0.02
C13U G19A A24C C31U | 0.01
A14G G19A G22A A24C G27U G30U G44U | 0.07
C8A U9A G22C A39U G40U | 0.12
G1C C15U G22U A24C C46U | 0.05
G27U C31A G40C | 0.48
C8A A14G U20C A24U | 0.05
A16C G17A G19U G27C G36C | 0.01
G7A C10A G33A A41U | 0.02
G2U G19A U34A | 0.01
G7A C23A A25U G40A | 0.46
C18A G35C G36U | 0.03
U20G G21U G27U U38C C42U | 0.48
G5C C8G G36U G40C | 0.02
G30A G36A C45G | 0.59
A6C C13G G19A | 0.51
C13G G22C G36U | 0.02
U9C A14U C23G A25U U38C | 0.01
A25G A26U G33A U38G | 0.02
A4U G21A C23A A25G | 0.13
C3U U9A C18U G33U | 0.17
A11C U28A G33A | 0
C13U A16G G19U U32A | 0.02

Variant | self-cleavage
A4G C23G G33A | 0.2
A14C G33C C45A | 0.02
C23U U32G C42U U43G | 0
A4G G5A C8U G22A | 0.06
C8U A12U U32A C37U | 0
A14U G21A U32A | 0.05
A11U A12C C31A | 0.02
C3U A25C G35A C46A | 0.02
C8A C31G U34G | 0.33
G5A C8A G33U | 0.29
C3U C10U A12G A25U U28G C37G | 0.01
G1A C15A A26U | 0.08
A12U C18A U20A A24C A39U | 0.07
G7C C10A U20C G21U | 0.01
G2A C23U U32C C37A G40A | 0.34
A4G G5U G17U G36A | 0.05
A4U C8G G27U C42U | 0.07
C3U C8G G29A U43C | 0.01
C8U G27U U34G | 0.1
G29U G35U G36U | 0.08
G7A C8G A14C G21A U28A G40C | 0.02
U9G A12U A26G | 0
C3A A4G G44C | 0.13
A4G C10A G30C C31G G36A | 0.05

Variant | self-cleavage
G2A C8U U32A C37U | 0.29
G1A C23U G27A | 0.27
G19C G27C U32G | 0.09
U20G A25C G36C | 0.03
C10G C13A C37U | 0.01
C13U C18G U28A G33A G44A | 0.16
G1A G7U U43G | 0.11
A6C C13U G22U C42U | 0.12
A11U G17C G30C | 0.02
C10A G29U A39U | 0.15
C23G G33A G36U | 0.02
G1U G5U A11U | 0.02
A14C A26U U38G G44A | 0
C31U C42U C46U | 0.01
A6U A14G C15A | 0.01
C13A U34C G36C C45G | 0.02
A11C G17C C23A U28A C37G | 0.01
G1U C8A G27C U34C G35C G36U C46A | 0.02
G17C U28C A39C | 0.03
A14C G21A G30A | 0.3
G1A U9G A24G C37U | 0.09
C3G C13G G19U G40U | 0.19
A24C A25U G44A | 0.14
A6U U9C G22U | 0.11

Variant | self-cleavage
G19C U38C G40U | 0.04
G1A A16C C42U C45U | 0.05
A16C G40A G44A | 0.09
C13U G17U U20C U28A | 0.09
A4C C15G G21A C42G U43G | 0.02
C3U G40U A41C | 0.11
G7A G21U A24G G29U C45G | 0.06
C8A C15U G29U | 2.62
G5A A25G G33C | 0.03
A6C U9A U34G U38C G40C | 0.1
A16G G22C G40U C42G | 0.02
A4U A11C G27U G35A C42G | 0
C37A C45U C46G | 0.04
A12U U28G C45U | 0.75
C3A U9A G29A G44U | 0.1
C10A G19U A25U G27C G29A | 0.02
A4U G17A A26U | 0.15
G7A A11G C13A G29A G35U G40C A41U | 0.02
A4U G27A G35A C42U | 0
G17U G19C G22A C45A | 1.11
G1C G5U U20C G40U | 0.02
A11C C31G U38A C42U | 0
G2C U9G C15G C42G U43G | 0.02
C10A C23U A25G | 0.03

Variant | self-cleavage
C23A U28G U43A | 0.04
U9G A12C G19U U20C | 0.04
U20G A24C G40U | 0.06
A4U G36A U43G C46U | 0.1
G2U G7C C10A G22U C46A | 0
C3A C18G A24U | 0.93
A6C A12U G22U A25G G27C A41C | 0.01
A4U C8U C18U | 0.57
G2U C8U C13A | 0.05
A12G G21U C42A | 0.03
G2U C8U U9C | 0.07
A6G A12G C13U U20A A25U | 0.02
U9G C23A G27A G29C C37G | 0
A4U C13A C18G | 0.06
G2U A11G G29A A41G | 0
C3A G22A A25U U34A | 0.11
G2A A6U C10A | 0.11
G2U C13A G22U | 0.01
G21U C37G G40U | 0.07
A41G C45U C46U | 0.05
G5C C31A G35A A39C | 0.02
C13A G27A G36U G40U | 1.06
C10U G19U C31U G44C | 0.19
C10U G21U G33C G35U G44C | 0.04

Variant | self-cleavage
G5U C10A C15A A26U G29C A39G | 0.02
G1C C3A U9G G29A C31G | 0.03
A16U G21C C42U | 0.09
A16C A24C A26U G33U | 0.02
G2A A4C C10U U34C C37U | 0.04
U9C C23A G30A C31G G33A | 0.03
G2C A11U C13A C23G | 0.01
C31A C42A C45A | 0.03
G1A C10G A16G G21A C31U | 0.03
G2C A4C G21C G22A G29C | 0.02
C8A C13U C18U G22A | 0.37
U9A A12U G19A | 0.11
C13U G33U U38C | 0.03
G1C A4C G30C A41G G44U | 0.03
G19A G22A G29C G36A | 0.01
G7U C8U C45G | 0.07
C15A G27A U43G | 0.07
C10A A12C G17U G19C U32A | 0
A14G A16U G17C U32C G44C | 0.1
G5C G30A U34A A39U | 0.16
A6G C13A A16C G22A A41C | 0.08
A6C G7A U32C | 0.28
A11C U38C G44A C46G | 0
